Data from PubChem BioAssay AID360 (National Center for Advancing Translational Sciences (NCATS), 2006).
The whole screen tested about 48,000 compounds, of which about 550 (1.1%) were called active. Not shown: some 4% with an inconclusive outcome. Cut-off read from the data, not from the text of the source: active = potency below about 15 µM; inconclusive = mostly about 16 µM to 33 µM; inactive = weaker than that. This is one part of the list.

These molecules were tested against Lysosomal acid glucosylceramidase (Homo sapiens) (UniProt P04062) (assay: Glucocerebrosidase). Settings: purified enzyme, resorufin glucoside fluorescence (screen aimed at inhibitors), 20 min; series mostly up to 77 µM.
UniProt P04062, sequence (P04062 whole entry, looked up): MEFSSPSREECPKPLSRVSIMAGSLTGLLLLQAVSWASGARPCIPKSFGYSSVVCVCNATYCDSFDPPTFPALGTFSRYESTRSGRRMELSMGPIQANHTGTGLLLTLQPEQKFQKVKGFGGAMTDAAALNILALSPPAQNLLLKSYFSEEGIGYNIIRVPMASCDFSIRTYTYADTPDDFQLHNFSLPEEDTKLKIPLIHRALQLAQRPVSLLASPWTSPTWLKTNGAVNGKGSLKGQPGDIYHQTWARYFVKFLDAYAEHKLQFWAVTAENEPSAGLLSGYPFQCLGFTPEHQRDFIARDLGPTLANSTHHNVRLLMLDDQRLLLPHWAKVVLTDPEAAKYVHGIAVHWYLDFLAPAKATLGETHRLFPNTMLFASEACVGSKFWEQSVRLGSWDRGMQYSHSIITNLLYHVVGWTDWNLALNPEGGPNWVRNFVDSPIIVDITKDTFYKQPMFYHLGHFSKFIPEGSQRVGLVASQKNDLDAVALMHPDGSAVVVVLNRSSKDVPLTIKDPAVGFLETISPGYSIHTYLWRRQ
Procedure, shortened: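 Normal human glucocerebrosidase (0.2 nM final) was assayed with resorufin β-D-glucopyranoside (30 uM final) in 50mM citric acid/KH2PO4, 10mM sodium taurocholate, 0.01% tween-20, pH 5.9. Compounds were titrated; fluorescence (Ex 548, Em 600) read after 20 min at RT.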
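Note: the screen sought inhibitors.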
Potency is the fitted concentration of half-maximal effect.

SMILES | Potency
COCCNC(=O)CN(C(=O)CCC(=O)Nc1ccccn1)c1ccc(F)c(Cl)c1 | inactive: > 76.9 µM
O=C(NCc1ccc2c(c1)OCO2)c1ccc(-c2ccc(Cl)cc2)o1 | inactive: > 76.9 µM
CCOC(=O)CC1=CC(=O)Nc2ccccc2N1 | inactive: > 76.9 µM
C=CCSc1nc2c(cc1C#N)CCC2 | inactive: > 76.9 µM
Cc1ccc(C(C)NC(=O)C2CCCO2)cc1C (configuration not stated) | inactive: > 76.9 µM
CCOCCCNC(=O)C(c1ccc(Cl)cc1)N1CCC2(CC1)OCCO2 (configuration not stated) | inactive: > 76.9 µM
CCOC(=O)c1cc2sc(C)cc2n1CC(=O)N1CCc2ccccc21 | inactive: > 76.9 µM
COc1ccc(NC(=O)CS(=O)CC(=O)NCc2cccc(C(F)(F)F)c2)cc1 (configuration not stated) | inactive: > 76.9 µM
COCCCNC(=O)C1CC(=O)N(c2ccc(C)cc2)C1 (configuration not stated) | inactive: > 76.9 µM
Cc1c(NC(=O)c2cnn3cccnc23)c(=O)n(-c2ccccc2)n1C | inactive: > 76.9 µM
CCOCCc1nnc(NC(=O)CSc2ccccc2)s1 | inactive: > 76.9 µM
O=C(OCCN1C(=O)c2ccccc2C1=O)C1CCN(S(=O)(=O)c2cccs2)CC1 | inactive: > 76.9 µM
Nn1c(SC/C=C/c2ccccc2)nnc1-c1cccnc1 | inactive: > 76.9 µM
C=CCNS(=O)(=O)c1cccc2cc(C(=O)O)c(O)cc12 | inactive: > 76.9 µM
COc1ccc(Cl)cc1C(=O)Nc1ccccc1N1CCN(C)CC1 | inactive
COc1cc(OC)c(C(=O)NC2CC(C)(C)NC(C)(C)C2)cc1OC | inactive: > 76.9 µM
Cc1ccc(C)c2[nH]c(=O)c(CN(CC3CCCO3)S(=O)(=O)c3ccc4c(c3)OCCO4)cc12 (configuration not stated) | inactive: > 76.9 µM
CC(C)C(C(=O)NC1CCCCC1)N(CC1CCCO1)C(=O)CNS(=O)(=O)c1ccc(F)cc1 (configuration not stated) | inactive: > 76.9 µM
C#CCSc1nnc(-c2ccccc2)c(=O)[nH]1 | inactive: > 76.9 µM
COc1ccc(Cl)cc1NC(=O)CN(C1CCCCC1)S(C)(=O)=O | inactive: > 76.9 µM
Cc1nnc(SCC(=O)c2cc(C)n(-c3c(C)n(C)n(-c4ccccc4)c3=O)c2C)s1 | inactive: > 76.9 µM
COCCSc1ccccc1C(=O)Nc1nnc(COC)s1 | inactive: > 76.9 µM
COc1ccc(NC(=O)C2CCC(=O)N2S(=O)(=O)c2ccc(C)cc2)c(OC)c1 (configuration not stated) | inactive: > 76.9 µM

SMILES | Potency
O=S(=O)(Nc1ccc(F)cc1)N1CCCCCC1 | inactive: > 76.9 µM
Cc1ccc2c(c1)N(CC(=O)O)C(=O)CO2 | inactive: > 76.9 µM
CCC(=O)Nc1c2c(nc3c1CCC3)CCCC2 | inactive: > 76.9 µM
CC1CCCCN1Cc1nc2c(c(=O)n(C)c(=O)n2C)n1CCc1ccccc1 (configuration not stated) | inactive: > 76.9 µM
CC(=O)Cn1c(N2CCC(Cc3ccccc3)CC2)nc2c1c(=O)[nH]c(=O)n2C | inactive: > 76.9 µM
Cc1csc(NC(=O)C2CCC(C)(C(=O)O)C2(C)C)n1 (configuration not stated) | inactive: > 76.9 µM
O=C1Nc2ccccc2C12OC1CCCCC1O2 (configuration not stated) | inactive: > 76.9 µM
Cc1ccc(-c2c3c(=O)n(C)c(=O)n(C)c3c3nnc4ccccc4n23)cc1 | inactive: > 76.9 µM
O=C(Nc1cccc(NC(=O)c2ccc(Br)o2)n1)c1ccc(Br)o1 | inactive: > 76.9 µM
CCc1nnc(NC(=O)C(NS(=O)(=O)c2ccc3c(c2)OCCO3)C(C)C)s1 (configuration not stated) | inactive: > 76.9 µM
O=C(CCS(=O)(=O)c1cccc2nsnc12)N1CC(=O)N(CCc2ccccc2)C(=O)C1 | inactive: > 76.9 µM
O=S1(=O)N=C(Nc2nc3c(s2)CCCC3)c2ccccc21 | inactive: > 76.9 µM
CCOC(=O)c1sc(NC(=O)CSc2nnc(Cc3ccccc3)o2)c(C#N)c1C | inactive: > 76.9 µM
CC1Cc2cc(/C(O)=C3/C(=O)C(=O)N(CC4CCCO4)C3c3ccco3)ccc2O1 (configuration not stated) | inactive: > 76.9 µM
CCC(=O)Nc1nc2ccc(NC(C)=O)cc2s1 | inactive: > 76.9 µM
COc1cccc(C2CC(c3ccccc3Cl)Nc3ncnn32)c1 (configuration not stated) | inactive
COc1cc(C)nc(N2CCCC(C(=O)NC3CCC(C)CC3)C2)n1 (configuration not stated) | inactive: > 76.9 µM
O=C(C1CCN(S(=O)(=O)c2cccc3cccnc23)CC1)N1CCN(c2ccccn2)CC1 | inactive: > 76.9 µM
CC(C)C(=O)Nc1ccc(C(=O)N2CCN(C(=O)c3ccco3)CC2)cc1 | inactive: > 76.9 µM
COCCN1Cc2cccc(C(=O)Nc3ccc(C)c(C)c3)c2C1=O | inactive: > 76.9 µM
O=C(CSc1nnc(-c2ccc(Cl)s2)o1)N1CCc2ccccc21 | inactive: > 76.9 µM
COc1cccc(-c2cc(C(=O)Nc3cc(C)on3)no2)c1 | inactive: > 76.9 µM
CCOC(=O)CSc1nnc(CNC(=O)c2ccc(OC)cc2)n1Cc1ccccc1 | inactive: > 76.9 µM

SMILES | Potency
Cc1[nH]n(C(N)=S)c(=O)c1C(c1ccccc1)C(C#N)C#N (configuration not stated) | inactive: > 76.9 µM
CC(C)Cn1c(SCc2nnc(-c3cccs3)o2)nc(O)cc1=O | inactive: > 76.9 µM
Cc1nc2oc(C(=O)c3ccccc3)c(N)c2c2c1COC(C)(C)C2 | inactive: > 76.9 µM
COC(=O)c1ccc(COc2cccc(OC)c2)o1 | inactive: > 76.9 µM
Cc1ccccc1OCCn1nc(C(=O)O)c2ccccc2c1=O | inactive: > 76.9 µM
CC(C)CN(CC(C)C)c1nc(N)c(C#N)c(CC#N)c1C#N | inactive
CCCc1[nH]nc2c1C(c1cn[nH]c1-c1ccc(F)cc1)C(C#N)=C(N)O2 (configuration not stated) | inactive: > 76.9 µM
C1=Nc2c(NCc3ccccc3)ncnc2Oc2ccccc21 | inactive: > 76.9 µM
CC1(C(=O)O)Sc2[nH]c(=O)sc2C2c3ccccc3OC(=O)C21 (configuration not stated) | inactive: > 76.9 µM
CC12CCC(C(=O)NCc3ccc4c(c3)OCO4)(OC1=O)C2(C)C (configuration not stated) | inactive: > 76.9 µM
COCCc1nnc(NC(=O)Cc2ccccc2)s1 | inactive: > 76.9 µM
CS(=O)(=O)Nc1ccc(C(=O)N2CCCCC2)cc1 | inactive: > 76.9 µM
Cc1cc(C)cc(OCc2ccc(C(=O)O)o2)c1 | inactive: > 76.9 µM
Cc1ccc(Cn2c(=O)cc(C(=O)O)c3ccccc32)cc1 | inactive: > 76.9 µM
Cn1c(=O)cc(SCC(=O)N2CCN(C(=O)c3ccco3)CC2)c2ccccc21 | inactive: > 76.9 µM
C(=N\n1cnnc1)/c1cccc2ccccc12 | active: 14.3 µM
O=C(CCCc1nc(-c2ccccc2)no1)N1CCOCC1 | inactive: > 76.9 µM
CCOc1ccc(C2NC(=O)c3ccccc3O2)cc1 (configuration not stated) | inactive: > 76.9 µM
CCCCCCc1c(O)c2ccccc2[nH]c1=O | inactive: > 76.9 µM
COc1cc(-c2noc(CCCC(=O)NCc3ccco3)n2)cc(OC)c1OC | inactive: > 76.9 µM
Cc1ccc(OCc2nn3c(-c4n[nH]c5c4CCC5)nnc3s2)cc1 | inactive: > 76.9 µM
O=c1cc(-c2ccccc2)[nH]n1-c1nc2ccccc2s1 | inactive: > 76.9 µM
COc1ccccc1OCc1nc(C#N)c(N2CCC(C(N)=O)CC2)o1 | inactive: > 76.9 µM

SMILES | Potency
CC(=O)Oc1cc2c(C(C)=O)coc2c2ccccc12 | inactive: > 76.9 µM
Cc1nc2[nH]onc2c2nccc(=O)c12 | inactive: > 76.9 µM
O=C(c1cc2ccccc2oc1=O)N(Cc1ccco1)CC1CCCO1 (configuration not stated) | inactive: > 76.9 µM
O=C(NCc1cccc(C(F)(F)F)c1)C1CCCN(c2ncccn2)C1 (configuration not stated) | inactive: > 76.9 µM
CN(C)S(=O)(=O)N1CCN(CC(O)COc2ccc(C(=O)c3ccccc3)cc2)CC1 (configuration not stated) | inactive: > 76.9 µM
COc1ccc(-c2nnc(SCc3ccccc3)n2N)cc1 | inactive: > 76.9 µM
CCCn1c2c(c(O)c(C(=O)Nc3ccc(C)cn3)c1=O)CCCC2 | inactive: > 76.9 µM
CCc1nnc(NC(=O)CN2C(=O)c3ccccc3C2=O)s1 | inactive: > 76.9 µM
CCOCCOC(=O)C1=C(C)N(C)C(=O)NC1c1ccccc1F (configuration not stated) | inactive: > 76.9 µM
COc1ccc(-c2cn[nH]c2N)c(OC)c1 | inactive: > 76.9 µM
CCOc1ccc(-c2[nH]ncc2Oc2ccccc2OC)c(O)c1 | inactive: > 76.9 µM
CC(=O)c1c(C)cc(C)c(CSc2nnc(-c3ccco3)o2)c1C | inactive: > 76.9 µM
COc1ccccc1N(CN1C(=O)c2ccccc2C1=O)C(=O)c1cccnc1 | inactive: > 76.9 µM
CCn1nnc(NC(=O)c2cccnc2)n1 | inactive: > 76.9 µM
O=C(Nc1ccccc1C(=O)N1CCCC1)C1CCN(c2ncccn2)CC1 | inactive: > 76.9 µM
CCOC(=O)N1CCN(C(=O)c2ccc(N3CCCC3=O)cc2)CC1 | inactive: > 76.9 µM
Cc1cnc(NC(=O)c2ccc(-c3nc4ccccc4s3)o2)s1 | inactive: > 76.9 µM
O=P(c1ccccc1)(c1ccccc1)C(O)c1ccncc1 (configuration not stated) | inactive: > 76.9 µM
Cc1cc(C)nc(SCC(=O)Nn2cnnc2)n1 | inactive: > 76.9 µM
CCOC(=O)c1oc2cccc(O)c2c1CN1CCOCC1 | inactive: > 76.9 µM
O=C(C1CC1)N1CCc2cc(Br)cc(S(=O)(=O)NCc3ccc4c(c3)OCO4)c21 | inactive: > 76.9 µM
COC(=O)c1ccc(NC(=O)CSc2nnc(-c3ccncc3)n2C)cc1 | inactive: > 76.9 µM
COc1ccccc1-c1cc(C(=O)NCc2ccc(Cl)cc2)no1 | inactive: > 76.9 µM
